In PubChem BioAssay AID1745853 (National Center for Advancing Translational Sciences (NCATS), 2022):
Values joined by “and” are separate entries in the source; they are usually repeats but may differ in a detail not shown here. Equal entries are not always repeated. This is one part of the list. Shown are side measurements of this screen, not its main read-out; they come without a call.

Legend:
Experiment in all cases: Primary Screen for Target Class Profiling of Small Molecule Inhibitors of Methyltransferases
[1] = biological target: Glycine N-methyltransferase (Homo sapiens) (UniProt Q14749); details: purified enzyme, MTase-Glo SAH luminescence; measured here: GNMT inhibition; at 40 µM; stronger effect = lower value
In short: (§1)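 Each enzyme was assayed with SAM and its substrate. SAH formation detected by MTase-Glo luminescence; single-point 40 uM screen[…].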

[2] = biological target: Guanidinoacetate N-methyltransferase (Homo sapiens) (UniProt Q14353); details: purified enzyme, MTase-Glo SAH luminescence; measured here: GAMT inhibition; at 40 µM; stronger effect = lower value
In short: as §1

[3] = biological target: Histamine N-methyltransferase (Homo sapiens) (UniProt P50135); details: purified enzyme, MTase-Glo SAH luminescence; measured here: HNMT inhibition; at 40 µM; stronger effect = lower value
In short: as §1

[4] = biological target: Nicotinamide N-methyltransferase (Homo sapiens) (UniProt P40261); details: purified enzyme, MTase-Glo SAH luminescence; measured here: NNMT inhibition; at 40 µM; stronger effect = lower value
In short: as §1

[5] = biological target: Phenylethanolamine N-methyltransferase (Homo sapiens) (UniProt P11086); details: purified enzyme, MTase-Glo SAH luminescence; measured here: PNMT inhibition; at 40 µM; stronger effect = lower value
In short: as §1
% is set by controls: 0 for no effect and ±100 for the full control effect.

Structure (SMILES) | activity change, negative = inhibition [1] | activity change, negative = inhibition [2] | activity change, negative = inhibition [3] | activity change, negative = inhibition [4] | activity change, negative = inhibition [5]
O=C(O)C[C@@H]1CCN(S(=O)(=O)c2ccccc2)C[C@@H]1CCN(CCN1CCOCC1)c1ccccc1 | -13% | -3.31% | -5.3% | -4.07% | -0.056%
COc1ccc(CNC(=O)c2cc3n(n2)CC(C)(C(=O)NCCC(C)C)N(C)C3=O)cc1 (stereo not given) | 6.83% | 0% | 8.3% | 9.69% | 6.42%
C=C1C(=O)O[C@H]2/C=C(/C)[C@@H](OC(C)=O)C/C=C(\C)C[C@@H](OC(=O)/C(=C/C)COC(=O)/C(=C/C)CO)[C@@H]12 | 4.03% | 3.82% | 10.3% | -7.4% | 7.19%
CC(C)NC(=O)N1Cc2c(sc3c2CCCC3)-n2cccc2C1c1ccc(Cl)cc1 (stereo not given) | -3.24% | 4.85% | 1% | -4.16% | 2.23%
Cc1ccccc1CN1C(=O)c2cc3sccc3n2CC1(C)C(=O)NC1CCCCC1 (stereo not given) | -4.56% | 2.71% | -3.21% | 1.82% | -1.18%
CC(C)(C)c1ccc(CNC(=S)NCc2ccc(NS(C)(=O)=O)c(F)c2)cc1 | -15.6% | -24.2% | -8.7% | -42.7% | -17.4%
COC(=O)c1ncn2c1C(=O)N(Cc1ccc(OC(C)C)cc1)C(C)(C(=O)NCc1ccccc1)C2 (stereo not given) | 5.3% | 0.917% | 13.4% | 7.04% | 9.65%
CN(C)c1ccc(CNC(=O)CNC(=O)C2(C)Cn3c(cc4ccccc43)C(=O)N2C)cc1 (stereo not given) | 0.622% | 0% | 0.354% | -3.9% | 0.554%
CCC(C)NC(=O)c1ccc2c(=O)n(C(C)C)c3nn(CC(=O)N(C)c4ccc(F)cc4)c(=O)n3c2c1 (stereo not given) | 1.45% | 4.41% | -3.92% | -5.11% | -0.133%
CC(C)n1ccnc1CN1CCC2(CCCO2)CCC1=O (stereo not given) | -3.07% | -4.64% | -0.888% | -9.42% | -4%
CCn1cc(CN2C[C@@H]3C(=O)N(CCCN4CCCC4=O)C(=O)[C@@H]3C2)cn1 | 0.537% | -1.17% | 2.85% | 1.83% | -2.4%
CN1C(=O)c2cc(C(=O)NCCCN3CCc4ccccc4C3)nn2CC1(C)C(=O)NCc1ccccc1 (stereo not given) | -14% | -1.02% | -10.8% | -4.21% | -5.05%
CC(=O)O[C@@H]1C[C@@H](OC(C)=O)C(C)(C)/C=C/[C@H](C)[C@H](OC(C)=O)[C@@]2(O)C[C@H](C)[C@H](OC(=O)c3ccccc3)[C@@H]2/C=C/1C | 0.974% | 2.52% | 5.13% | -11.7% | -8.77%
CCOc1ccc(-c2ccc(Cn3c(CC(C)(C)C(=O)O)c(SC(C)(C)C)c4cc(OCc5ccc(C)cn5)ccc43)cc2)cn1 | -15.7% and -8.52% | -15.6% and -5.87% | -7.78% and 8.38% | -86.6% and -74% | -40% and -21.4%
COc1cc2ncnc(Nc3ccc(F)c(Cl)c3)c2cc1OCCCN1CCOCC1 | -68.4% | -62.8% | -76.3% | -68.7% | -74.3%
COCC1(CNCc2c(C)noc2C)C[C@@H](O)[C@@H](O)C1 (stereo not given in full) | -2.93% | -2.73% | -0.172% | -2.56% | -0.608%
C=C(C(=O)O)[C@H]1C[C@]2(C)C(=O)CC[C@]23O[C@H]1C[C@@H]3C | -2.81% | -15.7% | 4.56% | -25.3% | 0.383%
CCOc1ccccc1CN1C(=O)c2nc3ccccc3n2CC1(C)C(=O)NC1CCCCC1C (stereo not given) | 2.07% | 0% | 2.67% | 0.003% | 0.379%
COc1ccccc1CNC(=O)C1(C)Cn2c(cc3ccccc32)C(=O)N1Cc1ccccn1 (stereo not given) | 1.2% | 3.19% | 2.56% | 4.79% | 1.57%

Structure (SMILES) | activity change, negative = inhibition [1] | activity change, negative = inhibition [2] | activity change, negative = inhibition [3] | activity change, negative = inhibition [4] | activity change, negative = inhibition [5]
Cn1c(=O)n(C)c2cc(CNc3ccc(N4CCOCC4)c(C(=O)O)c3)ccc21 | -1.95% | 0% | 8.23% | 12% | -0.942%
Cc1ccc(CN2CCCC(C(=O)N3CCN(c4ccccn4)CC3)CCNC(=O)CC2)s1 (stereo not given) | -4.75% | -3.86% | -1.39% | -11.5% | -0.798%
OCC1(CCCc2ccccc2)CCN(Cc2cccc3c2OCO3)CC1 | -3.79% | -5.47% | -40.6% | -16.1% | -22.4%
CN1C(=O)c2cc(C(=O)N3CCN(C4CCCCC4)CC3)nn2CC1(C)C(=O)NC1CCCCCC1 (stereo not given) | -1% | 0% | 0.89% | -5.55% | -2.84%
O=S(=O)(c1ccc2[nH]c3c(c2c1)CCCC3)N1CCN(c2cccc(C(F)(F)F)c2)CC1 | 2.55% | 0% | 0.268% | -4.25% | 0.458%
CC1CCC2(C(=O)O)CCC3(C)C(=CCC4C5(C)CCC(O)C(C)(CO)C5CCC43C)C2C1(C)O (stereo not given) | -3.2% | 0.07% | 2.73% | -10.7% | -8.91%
Cc1ccccc1CN1C(=O)c2cc3sccc3n2CC1(C)C(=O)NC1CCCC(C)C1C (stereo not given) | 2.97% | 0% | 5.72% | 3.26% | 1.11%
O=C(N[C@H]1CO[C@H]2[C@@H]1OC[C@@H]2n1nnnc1Oc1ccc(-n2ccnc2)cc1)c1ccccc1 | -2.87% | -2.44% | 0.369% | -4.45% | 12.3%
COC1CCOC2(CCN(C(=O)CCc3nc4ccccc4s3)CC2)C1 (stereo not given) | -4.42% | -5.12% | -2.78% | -10.6% | -10.3%
CC(C)NC(=O)c1onc(-c2ccc(Cl)cc2)c1[C@H](C)O | -6.97% | -6.95% | -4.49% | -9.64% | -0.276%
O=C(c1ccc(CN2C(=O)NC3(CCOCC3)C2=O)cc1)N1CCc2ccccc2C1 | -7.59% | -8.8% | -5.23% | -20.4% | -5.77%
Cc1ccc(Nc2ccnc(N3CCCN([S+](=O)([O-])c4ccc(C)cc4)C3)n2)cc1 | -1.76% | 2.37% | 1.93% | -4.97% | 7.14%
O=C(Cc1ccccn1)N1CCN(C(=O)c2cccc(-c3ccccn3)c2)CC1 | -5.26% | -6.53% | -1.91% | -17.7% | 6.49%
O=C(CCc1nnc2n(Cc3ccc(F)cc3)c(=O)c3ccccc3n12)Nc1ccc(F)cc1 | -5.89% | 0% | 3.89% | -7.72% | 1.62%
COc1ccc(N2C(=O)c3cc4sccc4n3CC2(C)C(=O)NC2CCCCCCC2)cc1OC (stereo not given) | -1.89% | 2.25% | 2.5% | 7.25% | -2.14%
O=C(NCCN1CCN(c2cccc3ccc(O)cc23)CC1)c1ccc(F)cc1 | -3.74% | -3.72% | 6.54% | -14.3% | -43%
COc1ccc(NC(=O)N2CCn3cccc3C2C)c(OC)c1 (stereo not given) | 3.23% | 0.805% | 6.07% | -0.809% | 7.27%
CC1=C(C(=O)OC(C)C)C(c2ccccc2Cl)CC(=O)N1Cc1c(F)cccc1F (stereo not given) | -3.04% | 2.18% | 0.095% | -4.79% | -11.9%
